The text below walks through data of the supplement of paper PMC12217912.

B1: TEV protease; numbered along this chain (parent)
chain: MGESLFKGPRDYNPISSSICHLTNESDGHTTSLYGIGFGPFIITNKHLFRRNNGTLVVQSLHGVFKVKDTTTLQQHLVDGRDMIIIRMPKDFPPFPQKLKFREPQREERICLVTTNFQTKSMSSMVSDTSCTFPSGDGIFWKHWIQTKDGQCGSPLVSTRDGFIVGIHSASNFTNTNNYFTSVPKNFMELLTNQEAQQWVSGWRLNADSVLWGGHKVFMVKPEEPFQPVKEATQL

Variants of B1 are the subject of the assay. The assay can be described thus: raw area under fraction-flipped curve 0-4 h after induction (AUC4h, not background-subtracted), DNA-recorder readout of cleavage of the substrate (dimensionless); higher = more cleavage of the substrate by the protease variant. The settings on record: temperature: 34 °C; time window: 0-4 h after rhamnose induction. Here is the method:
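In vivo DNA recorder in E. coli TOP10(DE3) ΔrhaA at 34 °C. Each TEVp single-site mutant (parent TEVp 0) is paired with a single-site variant of the 7-mer TEVs (canonical ENLYFQ|S). The substrate sits between flexible linkers in a Bxb1-sfGFP-TEVs-SsrA fusion, so cleavage stabilises Bxb1 and speeds flipping of a recombination array, read by NGS. The value is the raw area under the fraction-flipped curve over 0-4 h after rhamnose induction (AUC4h), with ≥20 reads per time point. It is not background-subtracted; inactive controls average about 0.047.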

Some of the results follow. The full chains were built here from the parent and the listed change. Inactive controls read about 0.05.
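Further: Bxb1 expression induced with 0.2% (w/v) L-rhamnose at OD600 near 0.5, cultures sampled hourly, flipped fraction per protease–substrate barcode pair counted by paired-end Illumina sequencing.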

In the case of MGESLFKGPRDYNPISSSICHLTNESDGHTTSLYGIGFGPFIITNKHLFRRNNGTLVVQSLHGVFKVKDTTTLQQHLVDGRDMDIIRMPKDFPPFPQKLKFREPQREERICLVTTNFQTKSMSSMVSDTSCTFPSGDGIFWKHWIQTKDGQCGSPLVSTRDGFIVGIHSASNFTNTNNYFTSVPKNFMELLTNQEAQQWVSGWRLNADSVLWGGHKVFMVKPEEPFQPVKEATQL [I84D], the “area with substrate ENLYCQS” value came out at 0.0448, the “area with substrate ENLYDQS” value amounted to 0.0358, the “area with substrate ENLYEQS” value turned out to be 0.0502 and the “area with substrate ENLYGQS” value was found to be 0.0477. Also, the “area with substrate ENLYIQS” value turned out to be 0.0591, the “area with substrate ENLYKQS” value worked out at 0.014, the “area with substrate ENLYMQS” value was 0.0399 and the “area with substrate ENLYPQS” value was 0.0456. For the same variant, the “area with substrate ENLYRQS” value is 0.0596, the “area with substrate ENLYSQS” value was 0.0506, the “area with substrate ENLYTQS” value was 0.0311 and the “area with substrate ENLYVQS” value worked out at 0.0591. In addition, the “area with substrate ENLYWQS” value came to 0.0422.
With MGESLFKGPRDYNPISSSICHLTNESDGHTTSLYGIGFGPFIITNKHLFRRNNGTLVVQSLHGVFKVKDTTTLQQHLVDGRDMRIIRMPKDFPPFPQKLKFREPQREERICLVTTNFQTKSMSSMVSDTSCTFPSGDGIFWKHWIQTKDGQCGSPLVSTRDGFIVGIHSASNFTNTNNYFTSVPKNFMELLTNQEAQQWVSGWRLNADSVLWGGHKVFMVKPEEPFQPVKEATQL [I84R], the “area with substrate ENLYCQS” value was 0.0793, the “area with substrate ENLYEQS” value is 0.0565, the “area with substrate ENLYGQS” value was found to be 0.006 and the “area with substrate ENLYHQS” value worked out at 0.0619. Also, the “area with substrate ENLYIQS” value is 0.054, the “area with substrate ENLYKQS” value is 0.0387, the “area with substrate ENLYMQS” value was found to be 0.0584 and the “area with substrate ENLYNQS” value came out at 0.0574. The “area with substrate ENLYPQS” value was 0.0615, the “area with substrate ENLYQQS” value is 0.0581, the “area with substrate ENLYSQS” value was found to be 0.052 and the “area with substrate ENLYVQS” value turned out to be 0.056.
With MGESLFKGPRDYNPISSSICHLTNESDGHTTSLYGIGFGPFIITNKHLFRRNNGTLVVQSLHGVFKVKDTTTLQIHLVDGRDMIIIRMPKDFPPFPQKLKFREPQREERICLVTTNFQTKSMSSMVSDTSCTFPSGDGIFWKHWIQTKDGQCGSPLVSTRDGFIVGIHSASNFTNTNNYFTSVPKNFMELLTNQEAQQWVSGWRLNADSVLWGGHKVFMVKPEEPFQPVKEATQL [Q75I], the “area with substrate ENLYCQS” value is 0.0727, the “area with substrate ENLYDQS” value is 0.0706, the “area with substrate ENLYEQS” value is 0.0672 and the “area with substrate ENLYGQS” value turned out to be 0.0598. Further, the “area with substrate ENLYHQS” value stood at 0.0381, the “area with substrate ENLYLQS” value came out at 0.07, the “area with substrate ENLYNQS” value stood at 0.0609 and the “area with substrate ENLYPQS” value came out at 0.0653. Also, the “area with substrate ENLYSQS” value was found to be 0.078 and the “area with substrate ENLYWQS” value amounted to 0.0802.
With MGESLFKGPRDYNPISSSICHLTNESDGHTTSLYGIGFGPFIYTNKHLFRRNNGTLVVQSLHGVFKVKDTTTLQQHLVDGRDMIIIRMPKDFPPFPQKLKFREPQREERICLVTTNFQTKSMSSMVSDTSCTFPSGDGIFWKHWIQTKDGQCGSPLVSTRDGFIVGIHSASNFTNTNNYFTSVPKNFMELLTNQEAQQWVSGWRLNADSVLWGGHKVFMVKPEEPFQPVKEATQL [I43Y], the “area with substrate ENLYCQS” value is 0.0477, the “area with substrate ENLYDQS” value came to 0.0486, the “area with substrate ENLYEQS” value was 0.0476 and the “area with substrate ENLYGQS” value was 0.0384. Moreover, the “area with substrate ENLYHQS” value is 0.0506, the “area with substrate ENLYKQS” value amounted to 0.0511, the “area with substrate ENLYLQS” value turned out to be 0.0526 and the “area with substrate ENLYMQS” value came to 0.0671. Moreover, the “area with substrate ENLYNQS” value was 0.0493, the “area with substrate ENLYPQS” value worked out at 0.0477, the “area with substrate ENLYRQS” value stood at 0.0373 and the “area with substrate ENLYVQS” value came out at 0.0175. For the same variant, the “area with substrate ENLYWQS” value turned out to be 0.0517 and the “area with substrate ENLYYQS” value was determined as 0.0403.
As for MGESLFKGPRDYNPISSSICHLTNESDGHTTSLYGIGFGPFIITNKHLFRRNNGTLVVQSLHGVFKVKDTQTLQQHLVDGRDMIIIRMPKDFPPFPQKLKFREPQREERICLVTTNFQTKSMSSMVSDTSCTFPSGDGIFWKHWIQTKDGQCGSPLVSTRDGFIVGIHSASNFTNTNNYFTSVPKNFMELLTNQEAQQWVSGWRLNADSVLWGGHKVFMVKPEEPFQPVKEATQL [T71Q], the “area with substrate ENLYCQS” value worked out at 0.118, the “area with substrate ENLYHQS” value came to 0.0629, the “area with substrate ENLYIQS” value stood at 0.152 and the “area with substrate ENLYKQS” value was 0.0516. Further, the “area with substrate ENLYMQS” value stood at 0.101, the “area with substrate ENLYNQS” value was found to be 0.0695, the “area with substrate ENLYPQS” value turned out to be 0.0577 and the “area with substrate ENLYRQS” value was 0.0665.
In the case of MGESLFKGPRDYNPISSSICHLTNESDGHTTSLYGIGFGPFIITNKHLFRRNNGTLVVQSLHGVFKVKDTRTLQQHLVDGRDMIIIRMPKDFPPFPQKLKFREPQREERICLVTTNFQTKSMSSMVSDTSCTFPSGDGIFWKHWIQTKDGQCGSPLVSTRDGFIVGIHSASNFTNTNNYFTSVPKNFMELLTNQEAQQWVSGWRLNADSVLWGGHKVFMVKPEEPFQPVKEATQL [T71R], the “area with substrate ENLYCQS” value came to 0.107, the “area with substrate ENLYDQS” value was determined as 0.0505, the “area with substrate ENLYEQS” value is 0.0722 and the “area with substrate ENLYGQS” value worked out at 0.0809. In addition, the “area with substrate ENLYIQS” value worked out at 0.154, the “area with substrate ENLYMQS” value was 0.076, the “area with substrate ENLYNQS” value worked out at 0.0601 and the “area with substrate ENLYVQS” value worked out at 0.119. In addition, the “area with substrate ENLYWQS” value came out at 0.0926.
Consider MGESLFKGPRDYNPISSSICHLTNESDGHTTSLYGIGFGPFIITNKHLFRRNNGTLVVQSLHGVFKVWDTTTLQQHLVDGRDMIIIRMPKDFPPFPQKLKFREPQREERICLVTTNFQTKSMSSMVSDTSCTFPSGDGIFWKHWIQTKDGQCGSPLVSTRDGFIVGIHSASNFTNTNNYFTSVPKNFMELLTNQEAQQWVSGWRLNADSVLWGGHKVFMVKPEEPFQPVKEATQL [K68W], for which the “area with substrate ENLYCQS” value was 0.0858, the “area with substrate ENLYEQS” value was determined as 0.0745, the “area with substrate ENLYHQS” value is 0.073 and the “area with substrate ENLYIQS” value worked out at 0.0991. Moreover, the “area with substrate ENLYKQS” value came to 0.0214, the “area with substrate ENLYLQS” value amounted to 0.0772, the “area with substrate ENLYMQS” value amounted to 0.0809 and the “area with substrate ENLYNQS” value was found to be 0.0743. Further, the “area with substrate ENLYPQS” value was 0.0721, the “area with substrate ENLYQQS” value worked out at 0.0405, the “area with substrate ENLYRQS” value worked out at 0.0635 and the “area with substrate ENLYSQS” value is 0.0795. Further, the “area with substrate ENLYTQS” value was 0.0702, the “area with substrate ENLYWQS” value worked out at 0.074 and the “area with substrate ENLYYQS” value came out at 0.0751.
As for MGESLFKGPRDYNPISSSICHLTNESDGHTTSLYGIGFGPFIITNKHLFRRNNGTLVVQSLHGVFKVKDTTTCQQHLVDGRDMIIIRMPKDFPPFPQKLKFREPQREERICLVTTNFQTKSMSSMVSDTSCTFPSGDGIFWKHWIQTKDGQCGSPLVSTRDGFIVGIHSASNFTNTNNYFTSVPKNFMELLTNQEAQQWVSGWRLNADSVLWGGHKVFMVKPEEPFQPVKEATQL [L73C], the “area with substrate ENLYCQS” value worked out at 0.0607, the “area with substrate ENLYHQS” value was determined as 0.0705, the “area with substrate ENLYKQS” value was found to be 0.0603 and the “area with substrate ENLYPQS” value was determined as 0.0622. The “area with substrate ENLYQQS” value was 0.0662, the “area with substrate ENLYRQS” value was 0.0655, the “area with substrate ENLYSQS” value was 0.057 and the “area with substrate ENLYVQS” value amounted to 0.0077. The “area with substrate ENLYWQS” value is 0.0554.
MGESLFKGPRDYNPISSSICHLTNESDGHTTSLYGIGFGPFIITNKHLFRRNNGTLVVQSLHGVFKPKDTTTLQQHLVDGRDMIIIRMPKDFPPFPQKLKFREPQREERICLVTTNFQTKSMSSMVSDTSCTFPSGDGIFWKHWIQTKDGQCGSPLVSTRDGFIVGIHSASNFTNTNNYFTSVPKNFMELLTNQEAQQWVSGWRLNADSVLWGGHKVFMVKPEEPFQPVKEATQL [V67P]: the “area with substrate ENLYCQS” value turned out to be 0.0391, the “area with substrate ENLYDQS” value was determined as 0.0419, the “area with substrate ENLYGQS” value is 0.0341 and the “area with substrate ENLYHQS” value came out at 0.0463. Moreover, the “area with substrate ENLYIQS” value was found to be 0.0536, the “area with substrate ENLYKQS” value was 0.0457, the “area with substrate ENLYLQS” value was 0.046 and the “area with substrate ENLYMQS” value was 0.0442. Moreover, the “area with substrate ENLYNQS” value turned out to be 0.0341, the “area with substrate ENLYPQS” value was determined as 0.0609, the “area with substrate ENLYQQS” value turned out to be 0.0461 and the “area with substrate ENLYRQS” value is 0.0434. The “area with substrate ENLYSQS” value stood at 0.0379, the “area with substrate ENLYVQS” value worked out at 0.0263 and the “area with substrate ENLYWQS” value was 0.0484.
